These results are taken from ChEMBL document CHEMBL4888484, “Replenishing the malaria drug discovery pipeline: Screening and hit evaluation of the MMV Hit Generation Library 1 (HGL1) against asexual blood stage Plasmodium falciparum ,using a nano luciferase reporter read-out” (2022).

By % Inhibition is commonly meant the drop in the measured response relative to a control, in per cent.

In all, about 150,000 compounds went through this assay and about 540 (0.36%) showed an effect of 50% or more. The list shows a part of the results.

The subject of the assay is Plasmodium falciparum. Kind of assay: Primary screen in NF54 nanoGlo assay, in single point, at 2uM, 72h; a lower Z score goes with more inhibition. In kind it is functional, Erythrocyte. To be noted: timepoint 72 hour.
In the case of `CC(C)[C@H](C)N(C(=O)NCc1ccncc1)C1CC1`, the “% Inhibition” value was -12% and the Z score came to 1.19.
For `O=C(Cc1cccs1)NCc1ccsc1` the same measures were 3% and -0.35.
For `COCCn1cc(NC(=O)N(C)c2c(C)noc2C)cn1` the same measures were 10% and -1.4.
In the case of `Cc1csc(C)c1S(=O)(=O)Nc1c2c(nn1C)CCCC2`, the “% Inhibition” value turned out to be 7% and the Z score was -0.96.
In the same order, the values of `O=c1[nH]c2ccc(-c3csc(N4CCCCC4)n3)cc2[nH]1` are 33% and -3.69.
For the compound `Cc1cc(N2CCC[C@H](CNC(=O)CN3CCOCC3)C2)nc2cc(F)ccc12`, the “% Inhibition” value is reported as -15% and the Z score was determined as 1.9.
For `CN1C[C@@H](NC(=O)N(CC2CCC2)CC2CC2)CC1=O` the same measures were 26% and -3.69.
In the case of `CC(C)CCN1C(=O)CC[C@@H]2CN(C(=O)c3ccn(C)c(=O)c3)CC[C@@H]21`, the “% Inhibition” value is reported as -2% and the Z score turned out to be 0.29.
Take `CN(C)C1CCC2C(C1)OCCN2c1ncc(Br)cn1` (configuration not stated): the “% Inhibition” value is recorded as -11% and the Z score is recorded as 2.
In the same order, the values of `N[C@H]1C[C@@H](c2nc(-c3ccn(-c4ccccc4)n3)no2)[C@@H]2C[C@@H]21` are 2% and -0.32.
As for `O=C([C@@H]1CCOc2ccc(Cl)cc21)N1Cc2cccc(Cl)c2C1`, the “% Inhibition” value is given as -15% and the Z score is recorded as 1.28.
In the same order, the values of `Cc1cc(S(=O)(=O)N2CCNC(=O)C[C@H]2c2ccccc2)c(C)o1` are -3% and 0.46.
With `Cc1nc(C(=O)NCc2nc(N(C)C)no2)no1`, the “% Inhibition” value is 7% and the Z score was -0.6.
In the same order, the values of `Cc1ccc(NC(=O)Cn2cnc3c(-c4ccncc4)nsc3c2=O)c(C)c1` are -3% and 0.56.
In the same order, the values of `O=C(O)c1noc(Cc2ccc(Cl)cc2)n1` are 4% and -0.42.
For the compound `Cc1cnn(CC(=O)N2CCOc3c(O)cc(-c4cccnc4)cc3C2)c1`, the “% Inhibition” value is reported as -18% and the Z score came to 2.06.
For `O=C(NC1CCN(Cn2nc3ccccn3c2=O)CC1)C1CCC1` the same measures were 3% and -0.34.
In the same order, the values of `O=C(N[C@H]1CC[C@@H](CO)C1)c1ccc(C(F)(F)F)cc1Cl` are -3% and 0.61.
In the same order, the values of `O=C(COc1ccc2c(c1)OCO2)Nc1cccc(S(=O)(=O)N2CCCC2)c1` are -11% and 1.55.
For the compound `COc1ncccc1C(=O)NCC(F)(F)F`, the “% Inhibition” value was -29% and the Z score stood at 3.28.
In the same order, the values of `CCCc1cnc(N2C[C@H]3CC[C@@H](C2)[C@@H]3N)nc1` are -10% and 1.92.
As to `CCCN(CC(=O)O)c1nnc(-c2ccccc2)s1`, the “% Inhibition” value came out at 1% and the Z score is -0.12.
In the same order, the values of `CCOc1cccc(CN2CCC3(CCC(=O)N(Cc4cccnc4)C3)CC2)c1` are -9% and 1.07.
As for `CC1(C)C[C@@H]2C[C@@](C)(CN2Cc2cc3n(n2)CCCNC3)C1`, the “% Inhibition” value was -3% and the Z score was 0.52.
For `CN1CCC(CNC(=O)C(C)(C)Oc2ccc3c(c2)CCC3)CC1` the same measures were -10% and 1.69.
Consider `Cc1nc2ccccc2n1CCc1nnn[nH]1`, for which the “% Inhibition” value is reported as -1% and the Z score was found to be 0.2.
For `COc1ccccc1OC(=O)Cn1c(=O)sc2cccc(Cl)c21` the same measures were 1% and -0.15.
In the same order, the values of `CC(C)c1cc(=O)[nH]c(-n2nc(C3CC3)cc2NC(=O)COc2ccc3ccccc3c2)n1` are 54% and -12.73.
In the same order, the values of `CN1CCCN(CC(=O)N[C@](C)(C#N)C2CC2)c2cc(F)ccc21` are -11% and 1.19.
On to `CC(=O)N[C@H]1CN(Cc2nc(C(F)(F)F)no2)C[C@@H]1c1ccc(C)cc1`, for which the “% Inhibition” value turned out to be 19% and the Z score was -2.51.
For `Cc1ccc(-c2nc3n(CC(=O)NCc4ccccc4)c(C)c(Cc4ccccc4)c(=O)n3n2)cc1` the same measures were 7% and -0.86.
Consider `CC(C)C(=O)N(CCCN1CCCC1)[C@H]1CCCN(C(=O)C2CCC2)C1`, for which the “% Inhibition” value was found to be 0% and the Z score is 0.05.
In the same order, the values of `CCn1ccnc1[C@H]1CCCN(c2cnc3ccccc3n2)C1` are -12% and 2.04.
For `C=CCN(Cc1ccc(OC)nc1)Cc1ccco1` the same measures were -10% and 1.98.
In the same order, the values of `COc1ccc(N2C(=O)[C@H](CC(=O)N3CCN(CCn4c(C)ccc4C)CC3)N=C2O)cc1` are 32% and -3.58.
`O=C(CCc1nnc[nH]1)N(Cc1ccc2c(c1)CCO2)C1CCCC1`: the “% Inhibition” value is listed as -4% and the Z score was 0.7.
In the same order, the values of `O=C(O)C[C@H]1CCCN(C(=O)CCCc2cc(F)ccc2F)C1` are 8% and -0.99.
For `CC(=O)Nc1cccc(C(=O)N2CCN(c3cc(C)n4c(C)nnc4n3)CC2)c1` the same measures were -11% and 1.39.
For `CCC(CC)[C@H]1CCN(C(=O)c2cc(C(=O)O)co2)C1` the same measures were -10% and 1.2.
For `O=C(NC1CC1)[C@@H]1Cc2ccccc2O1`, the “% Inhibition” value was -13% and the Z score was determined as 2.28.
For `CCCN1C[C@@H](NS(=O)(=O)c2c(C)cc(C)c3nonc23)CC1=O` the same measures were -5% and 0.74.
For `CCN(Cc1ccc2[nH]ccc2c1)S(=O)(=O)CC1CCC1` the same measures were -4% and 0.38.
For `Cc1ccccc1N(C(=O)COC[C@H]1CCCO1)C(C)C` the same measures were -11% and 1.52.
Regarding `Cc1cc(C(F)(F)F)ccc1CN1CCC2(CC1)NC(=O)[C@H](C)O2`, the “% Inhibition” value amounted to 4% and the Z score is -0.59.
For `Cc1cccc(S(=O)(=O)N2CCCC[C@H]2c2nnc(C3CCC3)o2)c1` the same measures were -15% and 2.1.
`O=C(NCC1CCOCC1)c1cccs1`: the “% Inhibition” value is on record as -3% and the Z score was found to be 0.6.
For `CS(=O)(=O)NCCNC(=O)C1CC=CCC1c1nc2ccccc2s1` (configuration not stated) the same measures were 1% and -0.22.
In the same order, the values of `Cc1nn(C)c2nc(N(C)Cc3cc(C(C)C)no3)sc12` are 3% and -0.61.
In the same order, the values of `Cn1nc2c(c1S(=O)(=O)N1CC(N3CCOCC3)C1)CCCC2` are 3% and -0.62.
Consider `O=C(NCc1nnc2ccccn12)c1cc2c(Cl)cccc2s1`, for which the “% Inhibition” value was -18% and the Z score is 2.48.
In the same order, the values of `CCCN(CC(=O)Nc1ccc(Cl)cc1)C(=O)Cn1cncn1` are -11% and 1.54.
In the same order, the values of `Cc1cnc(N[C@H]2CCC[C@@H]2N(C)C)nc1N(C)C` are -6% and 0.74.
In the same order, the values of `COc1cccc(CC(=O)Nc2nnc([C@H]3CC(=O)N(c4ccc(F)cc4)C3)o2)c1` are 2% and -0.29.
With `O=S(=O)(Cc1cnoc1C1CC1)C1CCCC1`, the “% Inhibition” value is 29% and the Z score is listed as -3.26.
For `CS(=O)(=O)N1CCC(n2c(=O)[nH]c3ccc(F)cc3c2=O)CC1` the same measures were 8% and -1.09.
For `O=C(CCc1cc2n(n1)CCN(Cc1ccc3ccccc3n1)C2)NCCO` the same measures were -16% and 2.81.
For `COc1cc(F)ccc1N(C)Cc1nnc(-c2ccco2)o1` the same measures were -16% and 3.06.
Turning to `O=C(COCC(=O)Nc1ccncc1)Nc1ccncc1`, the “% Inhibition” value is -8% and the Z score is reported as 1.24.
For `Cc1noc(C)c1CNC(=O)c1ccoc1`, the “% Inhibition” value was determined as 1% and the Z score is given as -0.11.
For `COc1ccc([C@H]2CC(=O)Nc3ccsc32)cc1OC(C)C` the same measures were 7% and -0.84.
As for `COc1ccc(CNc2ccc(N3CCOCC3)nc2)cc1OC`, the “% Inhibition” value is on record as -1% and the Z score is given as 0.19.
For `CC(=O)Nc1ccc(OCCO)c(OCCO)c1` the same measures were 5% and -0.71.
For `COc1ccc(NC(=O)c2nccnc2-c2nc3ccccc3s2)cc1Cl` the same measures were -12% and 1.36.
`CC(C)c1ccc(-c2nn3c(C4CCN(S(C)(=O)=O)CC4)nnc3s2)cc1`: the “% Inhibition” value was determined as 33% and the Z score was -4.27.
Turning to `CCN1C(=O)C[C@H](C(=O)N(C)Cc2ccccn2)[C@H]1c1nccn1CC`, the “% Inhibition” value was -7% and the Z score was determined as 0.97.
In the same order, the values of `Cc1nn(C)c(C)c1CC(=O)N1CCc2sccc2C1` are -38% and 4.51.
For `Cc1nn(-c2nc3ccccc3o2)c2c1[C@@H](c1cccc(Cl)c1Cl)CC(=O)N2` the same measures were 11% and -1.36.
In the case of `Cc1c(F)cccc1-c1ccc(CNc2cccc(CN3CCC(O)CC3)c2)o1`, the “% Inhibition” value is 8% and the Z score is on record as -0.88.
In the same order, the values of `C#CC1CCN(C(=O)CN2C(=O)COc3ccccc32)CC1` are -13% and 2.02.
For `Cc1nc(NC(=O)Cn2cnc(C#N)n2)sc1C` the same measures were -11% and 1.47.
Take `CCc1cc(C(=O)N2CCN(c3ccccc3Cl)CC2)nc2ccnn12`: the “% Inhibition” value is -3% and the Z score was determined as 0.41.
In the same order, the values of `COCCN(C[C@H]1CCCO1)c1nc(C)nc2sccc12` are -12% and 1.87.
Take `Cc1ncc(CN2CCC(NC(=O)c3ccc[nH]3)C(C)C2)s1` (configuration not stated): the “% Inhibition” value is listed as -5% and the Z score was 1.01.
In the same order, the values of `CN(Cc1ccoc1)C(=O)[C@@H]1CC[C@H](NC(=O)c2ncc(F)cc2F)C1` are -1% and 0.11.
In the same order, the values of `CN(C(=O)CN1CC[C@H]1c1ccc(F)cc1)C1CCCCC1` are -9% and 0.81.
As for `Cc1ccc(OC2CCN(Cc3ccncc3)CC2)c(C(=O)N2CCC[C@H]2CO)c1`, the “% Inhibition” value is reported as -10% and the Z score is listed as 1.4.
For `Brc1c(OCc2nc(-c3ccncc3)no2)ccc2ccccc12` the same measures were -6% and 0.87.
For `COC(=O)c1cc(Cl)cc(NC(=O)CCc2cscn2)c1` the same measures were 2% and -0.3.
For `C[C@H](NCC(=O)Nc1cc(S(=O)(=O)N2CCOCC2)ccc1N1CCOCC1)c1ccco1` the same measures were -32% and 3.81.
As to `Cc1noc(C)c1CN1CC2(CCN(C(=O)[C@@H]3CCCO3)CC2)CC1=O`, the “% Inhibition” value is reported as -5% and the Z score is on record as 0.58.
For `C[C@]1(Cc2cccc(F)c2)CCCN1C(=O)CN1CCCCC1=O` the same measures were -1% and 0.22.
In the same order, the values of `Cc1nn(C)c2nc(NCCN3CCCC[C@@H]3CO)sc12` are -8% and 1.08.
In the same order, the values of `O=C(c1cccc(Oc2ccccc2)c1)N1CCC[C@H]1c1nc2ccccc2s1` are -9% and 1.45.
Consider `CN1CCCc2cc(C(=O)NCc3cccc(F)c3)sc21`, for which the “% Inhibition” value is -15% and the Z score turned out to be 2.76.
In the same order, the values of `CCCN1CCC(CC(=O)N[C@@H](C)[C@H](O)c2ccccc2)CC1` are -17% and 1.68.
For `CC1(C)CN(C(=O)c2cnc3ccc(F)cc3c2)CCS1(=O)=O` the same measures were -19% and 2.59.
